# Among all 310,000 compounds or so, about 2,200 (0.71%) showed an effect of 50% or more. The effect is printed as a negative number. The list shows a part of the results.
# Target: human ether-à-go-go-related gene (hERG) potassium channel (human, UniProt Q12809)
# Test: primary screen, population patch clamp on CHO cells stably expressing hERG
# Chain of human ether-à-go-go-related gene (hERG) potassium channel (Q12809 whole entry, looked up): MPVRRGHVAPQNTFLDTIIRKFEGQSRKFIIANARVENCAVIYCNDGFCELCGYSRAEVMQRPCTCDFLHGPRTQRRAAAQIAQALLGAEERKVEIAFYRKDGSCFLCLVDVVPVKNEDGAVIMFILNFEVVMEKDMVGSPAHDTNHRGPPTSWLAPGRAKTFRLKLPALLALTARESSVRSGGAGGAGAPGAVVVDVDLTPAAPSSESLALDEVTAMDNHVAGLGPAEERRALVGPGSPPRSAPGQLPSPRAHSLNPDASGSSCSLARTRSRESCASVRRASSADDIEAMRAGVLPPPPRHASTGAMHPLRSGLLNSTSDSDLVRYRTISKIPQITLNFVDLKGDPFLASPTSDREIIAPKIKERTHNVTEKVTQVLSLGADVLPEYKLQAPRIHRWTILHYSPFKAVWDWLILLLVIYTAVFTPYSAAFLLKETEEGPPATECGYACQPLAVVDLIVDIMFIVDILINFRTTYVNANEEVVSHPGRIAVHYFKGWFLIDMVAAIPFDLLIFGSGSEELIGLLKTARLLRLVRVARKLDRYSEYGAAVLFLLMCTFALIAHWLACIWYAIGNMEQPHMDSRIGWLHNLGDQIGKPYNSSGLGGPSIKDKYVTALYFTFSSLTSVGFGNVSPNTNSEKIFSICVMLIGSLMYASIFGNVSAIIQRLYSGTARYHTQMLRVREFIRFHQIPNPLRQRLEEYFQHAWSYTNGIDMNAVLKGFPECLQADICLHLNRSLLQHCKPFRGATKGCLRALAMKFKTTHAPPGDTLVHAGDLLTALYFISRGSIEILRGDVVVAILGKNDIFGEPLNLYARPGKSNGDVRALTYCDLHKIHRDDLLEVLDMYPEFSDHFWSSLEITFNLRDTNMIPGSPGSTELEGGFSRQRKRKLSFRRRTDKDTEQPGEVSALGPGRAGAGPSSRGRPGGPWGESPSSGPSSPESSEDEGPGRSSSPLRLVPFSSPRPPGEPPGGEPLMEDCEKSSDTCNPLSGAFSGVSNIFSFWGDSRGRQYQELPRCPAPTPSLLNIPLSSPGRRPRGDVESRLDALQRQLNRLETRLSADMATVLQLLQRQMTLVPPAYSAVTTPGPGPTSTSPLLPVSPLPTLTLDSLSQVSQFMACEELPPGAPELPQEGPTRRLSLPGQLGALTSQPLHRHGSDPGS
row,Compound,"hERG current change (%, negative = inhibition) at 1uM [%]"
1,COc1ccc(S(=O)(=O)N2Cc3ccccc3CC2C(=O)O)cc1 (centres unmarked),5.89
2,CC(C)(C)c1ccc(C(=O)O)c(C(=O)c2ccccc2)c1,-6.15
3,COc1cc(/C=N/N2C(=O)C3C4C=CC(CC4)C3C2=O)ccc1O (centres unmarked),5.16
4,CCOC(=O)c1c(-c2ccc(C)o2)csc1NC(=O)COC(=O)c1ccc(NC(N)=O)cc1,1.57
5,O=C(NCCN1CCCCC1)c1ccc2c(c1)OCCO2,11.3
6,O=C(O)c1ccc(COc2ccc(Cl)cc2)o1,13.1
7,Cn1cnc([N+](=O)[O-])c1Sc1ncccc1N,5.62
8,O=C1C2=C(CCCC2)C(=O)N1CNc1ccccc1,13.4
9,Cc1ccccc1-c1nc(CS(=O)(=O)CC(=O)N2CCN(C)CC2)c(C)o1,8.35
10,CCCn1c(SCC(=O)c2cc(C)n(-c3ccc4c(c3)OCO4)c2C)n[nH]c1=O,-0.109
11,CCOC(=O)c1ccc(C(=O)NNC(=O)C2C3C=CC(C3)C2C(=O)O)cc1 (centres unmarked),11.9
12,O=C(NCCN1CCOCC1)c1cc(-c2cccs2)on1,-1.23
13,COc1cc2ccc(=O)oc2cc1OCC(O)C(C)(C)O (centres unmarked),3.03
14,COc1ccc(C(=O)NC(=S)Nc2ccc(Cc3ccncc3)cc2)cc1,16.4
15,CC(C)CCn1nc(C(=O)Nc2nc3c(s2)CCCC3)c2ccccc2c1=O,12
16,c1csc(-c2nn3cnnc3c3ccccc23)c1,-6.16
17,COc1ccc(OC)c([N+](=O)[O-])c1C(N)=O,13.4
18,O=C(O)c1cc(-c2ccccc2)n(-c2ccccc2C(=O)O)n1,8.04
19,CCOC(=O)N1CCN(C(=O)c2ccc3c(c2)N(Cc2ccccc2)CCS3)CC1,1.16
20,COc1cc(NC(=O)Nc2ccc(C)cc2)cc([N+](=O)[O-])c1,10.9
21,O=S(=O)(Nc1cc(Sc2cccc3cccnc23)c(O)c2ccccc12)c1ccc(F)cc1,13.4
22,C=CCc1ccc(OCCCCCN2CCOCC2)c(OC)c1.O=C(O)C(=O)O,5.72

row,Compound,"hERG current change (%, negative = inhibition) at 1uM [%]"
1,COc1ccc(NC2(c3ccccc3)OC(=O)c3ccccc32)cc1 (centres unmarked),10.3
2,COc1ccc(OC)c(/C=N/NC(=O)c2cc(-c3ccc(C)o3)nc3ccccc23)c1,15.1
3,O=C(c1ccc(Cn2c(=S)[nH]c3ccc(N4CCOCC4)cc3c2=O)cc1)N1CCC(N2CCCCC2)CC1,10.7
4,Cc1ccc(C(=O)Nc2cccc(-c3cn4ccccc4n3)c2)cc1,5.57
5,CC(C)c1ccc(S(=O)(=O)N2CCN(C(=O)c3cc(-c4ccccc4)n[nH]3)CC2)cc1,-3.64
6,COc1cccc(NC(=O)N(CCCN2CCOCC2)C(C)c2cc3cccc(OC)c3o2)c1 (centres unmarked),0.054
7,COCCNC(=O)CN1C(=O)CN=C(c2ccccc2)c2ccccc21,-12.6
8,CCCCCCCNC1=CC(=O)CC(c2ccco2)C1 (centres unmarked),-77.6
9,CCOC(=O)c1cc(C(=O)OCC)c2cccc(C)n2c1=O,4.74
10,O=C(NCCC1=CCCCC1)C1CCN(C(=O)c2ccc(Br)cc2)CC1,1.8
11,Nc1c(-c2ccccc2)c(CSc2nc3ccccc3[nH]2)nn1-c1ccc(C(=O)O)cc1,12.2
12,Cc1c(OCC(=O)NCc2cccnc2)ccc2c3c(c(=O)oc12)CCC3,0.748
13,Cc1ccccc1NC(=O)CSc1[nH]c(=O)cc(C)c1C#N,8.02
14,COCCNC(=O)c1onc(CSc2ccccc2C)c1C(=O)O,9.95
15,COc1ccc(C(=O)C2CCCN(Cc3c(O)cccc3OC)C2)cc1OC (centres unmarked),-7.05
16,O=C(Nc1cc(Sc2nc3ccccc3s2)cc([N+](=O)[O-])c1)c1ccccc1F,11.2
17,O=C(COC(=O)c1ccc(Br)cc1)NC1CCCC1,3.56
18,C#CCOCCOCCOCCNc1nc(N2CCOCC2)nc(N2CCN(C(=O)[C@H](Cc3cc4ccccc4[nH]3)n3cc([C@@H](N)C(C)CC)nn3)CC2)n1.Cl (some centres unmarked),4.44
19,CC1CCCC(NC(=O)c2ccc(CNc3c(N4CCCC4)c(=O)c3=O)cc2)C1C (centres unmarked),13.8
20,COc1ccccc1C(=O)NCCC(=O)NC1CCCC(C)C1C (centres unmarked),-17.7
21,O=C(O)CC/C(=N\NC(=O)CNC(=O)c1cccc(Cl)c1)c1ccccc1,4.05
22,COC(=O)C1=C(C(=O)OC)[C@@H]2N(C)c3ccccc3[C@@]23C[C@@H](C(=O)OC)N(C(=O)c2ccc(Br)cc2)C3=N1,7.04
